Assay results taken from PubChem BioAssay AID463173 (ICCB-Longwood Screening Facility, Harvard Medical School, 2010).
Hit rate of the full screen: of about 52,000 compounds, about 4,300 (8.3%) were called active. Rule as the data show it: active = survival mostly below about 52% (no sharp cut-off); inactive = mostly above about 56%. Some of the results follow.

tested on: DeltatarO mutant; assay: growth inhibition of S. aureus wild type versus tarO mutant, primary screen, teichoic acid synthesis inhibitors, RN4220, OD600 (AID 463173); details: OD600, 18 h, hits give low values, screened at 18.75 µg/mL (by protocol)

Structure (SMILES) | survival
CCc1ccc(CNC(=O)c2cc3c(=O)oc4ccc(C)cc4c3s2)cc1 | inactive: 82%
Cc1ccc(NC(=O)Nc2nnc(N3CCCCC3)s2)c(C)c1 | inactive: 100%
COc1ccc(NC(=O)c2ccc3snnc3c2)cc1OC | inactive: 113%
COc1cc(OC)cc(-n2c(=O)[nH]c3cc(C(=O)NCCc4ccc(C)cc4)ccc3c2=O)c1 | inactive: 77%
CCNc1nc(NCC)nc(N(n2cnnc2)S(=O)(=O)c2ccc(C)cc2)n1 | active: 1%
Cn1cc(C(=O)NCc2ccc(F)cc2)c(=O)c2cc(S(=O)(=O)N3CCCCC3)ccc21 | inactive: 59%
O=C(CCSCc1ccccc1F)N1CCN(c2ccc(F)cc2)CC1 | inactive: 91%
COc1cc(OC)c(NC(=O)c2oc3ccc4c(c3c2C)C(=O)CC(C)(C)O4)cc1Cl | inactive: 106%
CCOc1ccccc1NC(=O)Cn1c(=O)n(Cc2ccc(C(=O)NCCCOC)cc2)c(=O)c2ccccc21 | inactive: 81%
CC(C)c1ccc(Nc2nc3ccc(C(=O)c4ccccc4)cc3n3cnnc23)cc1 | inactive: 81%
O=C(NC1CCCCC1)C(Cc1ccccc1)N1C(=O)C2C3C=CC(C3)C2C1=O (stereo not given) | inactive: 92%
O=C(Cn1cnc2ccccc2c1=O)Nc1ccc(S(=O)(=O)Nc2nccs2)cc1 | inactive: 72%
COC(=O)c1ccccc1NC(=O)c1nc(SCc2ccccc2C)ncc1Cl | inactive: 79%
Cc1cc(C)cc(C(=O)Nc2ccc(-c3cn4cccnc4n3)cc2)c1 | inactive: 68%
Cn1c(=O)c(C(=O)NCCN2CCNCC2)c(O)c2ccccc21 | inactive: 68%
COc1ccc(-n2cc3c(c2-c2cccc(Br)c2)c(=O)n(C)c(=O)n3C)cc1OC | inactive: 80%
COc1cccc(NC(=O)Cn2c(=O)n(Cc3ccccc3)c(=O)c3c4c(sc32)CN(C(C)=O)CC4)c1 | inactive: 103%
COc1ccc(-c2cc(C(F)(F)F)nc(SCC(=O)NCc3ccc(F)cc3)n2)cc1 | inactive: 74%
CCCSc1nsc(NC(=O)CC)n1 | inactive: 96%
CCCCc1ccc(NC(=O)Cn2cnc3c2c(=O)n(C)c(=O)n3C)cc1 | inactive: 120%
Cc1cccc(NC(=O)Cn2c(=O)n(Cc3ccc4c(c3)OCO4)c(=O)c3ccccc32)c1 | inactive: 66%
CCS(=O)(=O)c1c(Nc2ccc(F)c(Cl)c2)sc(C(=O)c2ccccc2)c1N | inactive: 60%
O=C(C1CCC1)N1CCN(c2ccccc2)CC1 | inactive: 93%

Structure (SMILES) | survival
CCOc1ccc(-c2ccc(NS(=O)(=O)c3cc(C)ccc3OC)cc2)nn1 | inactive: 86%
Cc1ccc(-c2nnn(CC(=O)N(Cc3ccccc3)C(C(=O)NC3CCCC3)c3ccco3)n2)cc1 (stereo not given) | inactive: 64%
Cc1c(CNCCCc2ccccc2)c(C(=O)O)c(C)n1Cc1ccc(Cl)cc1 | inactive: 72%
Cc1cc(=O)[nH]c2nnc(SCc3cccc(F)c3)n12 | inactive: 87%
Cc1ccc(Cn2cc(CCC(=O)NC3CCCCC3)c3ccccc32)cc1 | inactive: 83%
COc1ccc(S(=O)(=O)NC2(C(F)(F)F)NC(=O)N(CCc3ccccc3)C2=O)cc1 (stereo not given) | inactive: 99%
CCCCCSc1nnc2c(n1)OC(c1ccc(C)s1)N(C(C)=O)c1ccccc1-2 (stereo not given) | active: 45%
Cc1cccc(N2CCN(C(=O)Nc3ccc(F)cc3)CC2C)c1 (stereo not given) | inactive: 90%
Cc1c(Cl)cccc1N1CC(c2nc3ccccc3n2Cc2ccccc2F)CC1=O (stereo not given) | inactive: 41%
Oc1ccccc1-c1nc(/C=C/c2ccc(F)cc2)no1 | inactive: 79%
COC(=O)c1ccc(CSc2nc3ccccc3o2)cc1 | inactive: 97%
COc1ccccc1NC(=O)CN1C(=O)C(c2ccc(F)cc2)=NC1(C)C | inactive: 93%
O=C(N1CCC(O)(c2cccnc2)CC1)C12CC3CC(CC(C3)C1)C2 | inactive: 99%
Cc1ccccc1Cn1c(CCCNC(=O)C2CCCCC2)nc2ccccc21 | inactive: 90%
Cc1cccc(OCc2nnc(SCC(=O)Nc3ccc(C)cc3C)o2)c1 | inactive: 139%
Cc1ccccc1Cn1c(SCc2ccc(C(=O)NCc3cccs3)cc2)nc2ccncc21 | inactive: 106%
COc1ccc(S(=O)(=O)N(Cc2nc(-c3cccc(C)c3)no2)C2CCCCC2)cc1 | inactive: 57%
Cc1ccc2[nH]cc(NC(=O)N3CCCCC3)c(=O)c2c1 | inactive: 96%
CCCSCCCNC(=O)C1CCN(C(=O)c2cc3sccc3n2C)CC1 | inactive: 109%
COc1ccccc1N1CCN(S(=O)(=O)c2ccc3c(c2)oc(=O)n3C)CC1 | inactive: 89%
Cc1nnc(N2CCC(C(=O)NC(C)C)CC2)c2nn(-c3ccc(Cl)cc3)c(C)c12 | inactive: 74%
CCCC(=O)Nc1cccc(-c2nc3ccccc3c(=O)o2)c1 | inactive: 98%
CCSc1ncnc2c(-c3ccc(OC)cc3)nsc12 | inactive: 97%

Structure (SMILES) | survival
Cc1cccc(NC(=O)Cn2c(=O)n(Cc3ccc(C(=O)NCc4ccc5c(c4)OCO5)cc3)c(=O)c3ccccc32)c1 | inactive: 95%
O=C(CCn1c(=O)c2cccn2c2ccc(F)cc21)NCc1ccccc1F | active: 45%
Cc1ccc(NC(=O)CSc2nc(-c3ccc(F)cc3)cc(C(F)(F)F)c2C#N)cc1 | inactive: 63%
CCOc1ccc(C(=O)c2cn(CC(=O)Nc3cc(OC)cc(OC)c3)c3ccc(F)cc3c2=O)cc1 | inactive: 66%
COc1ccc(C(=O)SC2=NCCS2)cc1 | inactive: 103%
COc1ccc(-c2c(C#N)c(SCC(=O)Nc3ccccc3C)nc(C)c2C(=O)Nc2ccccc2)cc1OC | inactive: 95%
CC(=O)Nc1cccc(NC(=O)Cn2c(-c3cccnc3)ccc(C#N)c2=O)c1 | inactive: 77%
COCCCNC(=O)CSc1nc(-c2cccc(F)c2)[nH]c1-c1ccccc1 | inactive: 86%
O=C(CN1CCN(Cc2ccccc2Cl)C1=O)NCc1ccccc1Cl | inactive: 67%
COc1ccc(CCN2C(=O)N(c3ccc(F)cc3)C(=O)C2CC(=O)Nc2ccccc2)cc1 (stereo not given) | inactive: 66%
N#C/C(=C\c1ccc(Cl)cc1)C(=O)NCC1CCCO1 (stereo not given) | active: 44%
CCN(CCCNC(=O)c1cc2c(=O)[nH]c3ccccc3c2s1)c1ccccc1 | inactive: 72%
CCC1CCCCN1S(=O)(=O)c1ccc(NC(=O)c2cc(=O)c3ccccc3o2)cc1 (stereo not given) | inactive: 79%
CCCCOc1ccc(C2c3c(-c4ccccc4O)n[nH]c3C(=O)N2Cc2ccncc2)cc1OC (stereo not given) | inactive: 61%
O=S(=O)(c1ccc(-n2cnnn2)cc1)N1CCN(c2ccccc2F)CC1 | inactive: 77%
CCCCn1nnnc1SCC(=O)c1cc(OC)ccc1OC | inactive: 92%
Cc1c2cnn(CC(=O)NCc3ccccc3)c(=O)c2c(C)n1Cc1cccc(Cl)c1 | inactive: 60%
Cc1ccc(C=N/C(=N\NC(=O)c2ccccc2)c2ccccc2)o1 | inactive: 94%
CC(=O)c1cccc(NC(=O)Cn2c(SCC(=O)Nc3ccc(F)cc3)nc3ccccc32)c1 | active: 20%
N#Cc1ccc2ccn(CC(N)=O)c2c1 | inactive: 83%
CCOc1ccc(-n2c(C)nc3c(cnn3-c3ccc(C)cc3)c2=O)cc1 | inactive: 76%
COc1ccc(C2c3cccn3CCN2S(=O)(=O)c2ccccc2[N+](=O)[O-])cc1OC (stereo not given) | inactive: 124%
COC(=O)[n+]1ccc(N2CCOCC2)cc1 | inactive: 94%

Structure (SMILES) | survival
O=C(NCc1ccccc1)c1nnc(Cc2cccc(F)c2)o1 | inactive: 85%
CCc1ccc(CNC(=O)CCc2c(C)nn(-c3ccc(N4CCCCC4)nn3)c2C)cc1 | inactive: 77%
O=C(NCC(c1ccc2c(c1)OCO2)N1CCOCC1)c1ccccc1F (stereo not given) | inactive: 92%
CC(CNC(=O)Cn1ccc2cc(S(=O)(=O)N3CCCCC3)ccc21)c1ccccc1 (stereo not given) | inactive: 87%
CCc1cnc2c(c1SCC(=O)Nc1ccc(Cl)cc1)c(=O)n(C)c(=O)n2C | inactive: 117%
COc1ccc(-c2cc(C(F)F)n3ncc(C(=O)Nc4cc(OC)ccc4OC)c3n2)cc1 | active: 51%
COc1ccccc1CNC(=O)Cn1c(=O)oc2cc(S(=O)(=O)N3CCC(C)CC3)ccc21 | inactive: 143%
COc1cccc(CNCCSc2nnnn2C)c1OCc1ccc(Cl)cc1Cl | inactive: 69%
COc1ccccc1NC(=O)CSc1ccc(-c2sc(C)nc2C)nn1 | inactive: 92%
CNc1nc(-c2ccc3c(c2)CCN3S(=O)(=O)c2ccccc2)cs1 | inactive: 86%
CCC(Nc1ccc(-c2nc(-c3ccco3)no2)cc1[N+](=O)[O-])c1ccccc1 (stereo not given) | inactive: 53%
CCn1c(CNC(=O)c2ccc(OC)cc2)nnc1SCC(=O)Nc1cccc(C)c1C | inactive: 132%
COc1cccc(Cn2c(=O)n(-c3cccc(Cl)c3C)c(=O)c3c4c(sc32)CN(C(C)=O)CC4)c1 | inactive: 101%
Cc1ccc(NC(=O)CSc2nc3ccc(NC(=O)c4cccs4)cc3s2)c(C)c1 | inactive: 74%
CCOC(=O)c1c(C)oc2nc(C)nc(NCC3CCN(Cc4cccc(C)c4)CC3)c12 | inactive: 84%
CCOc1ccc(CCNC(=O)C2CCN(C(=O)N3CC(CC)Oc4ccc(C)cc43)CC2)cc1 (stereo not given) | inactive: 63%
C1CCC(CNCC2CCCO2)CC1 (stereo not given) | inactive: 77%
COc1ccc(C(=O)COC(=O)c2cc(-c3ccccc3)nc3c(C)cccc23)cc1 | inactive: 64%
Cc1ccc(Cc2nc3ccccc3nc2SCC(=O)N2CCN(c3ccccc3F)CC2)cc1 | inactive: 49%
O=C1CCc2cc(S(=O)(=O)NCc3ccc(F)cc3)cc3c2N1CC3 | inactive: 81%
CC(=O)N1CCCc2ccc(NS(=O)(=O)c3ccc(C)c(C)c3)cc21 | inactive: 77%
